Data from patent US20040131615A1, “Methods for treating pain by administering a nerve growth factor antagonist and an opioid analgesic and compositions containing the same” (priority 2002, published 2004).

Molecular target: human NGF (Homo sapiens, UniProt P01138)
Experiment: Binding affinity (KD) of anti-NGF antibody to human NGF; BIAcore surface plasmon resonance of Fab fragments described
Description: One way of determining binding affinity of antibodies to NGF is by measuring affinity of monofunctional Fab fragments of the antibody. To obtain monofunctional Fab fragments, an antibody (for example, IgG) can be cleaved with papain or expressed recombinantly. The affinity of an anti-NGF Fab fragment of an antibody can be determined by surface plasmon resonance (BIAcore3000™ surface plasmon resonance (SPR) system, BIAcore, INC, Piscaway N.J.). CM5 chips can be activated with N-ethyl-N′-(3-dimethylaminopropyl)-carbodiinide hydrochloride (EDC) and N-hydroxysuccinimide (NHS) according to the supplier's instructions. Human NGF can be diluted into 10 mM sodium acetate pH 4.0 and injected over the activated chip at a concentration of 0.005 mg/mL. Using variable flow time across the individual chip channels, two ranges of antigen density can be achieved: 100-200 response units (RU) for detailed kinetic studies and 500-600 RU for screening assays. The chip can be blocked with ethanolamine. […] The concentrations of the Fab proteins are determined by ELISA and/or SDS-PAGE electrophoresis using a Fab of known concentration (as determined by amino acid analysis) as a standard. […] Equilibrium dissociation constant (KD) values can be calculated as koff/kon. […]

Chain of human NGF (P01138 122-241): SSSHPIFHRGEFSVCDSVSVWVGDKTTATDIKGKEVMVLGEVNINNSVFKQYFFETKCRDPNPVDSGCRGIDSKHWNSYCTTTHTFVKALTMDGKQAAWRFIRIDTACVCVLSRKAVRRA

B1: E3: Humanized mouse anti-NGF monoclonal antibody; mutated human IgG2a heavy chain constant region, human kappa, variable regions SEQ ID NO:1 and 2 (antibody, chains of the INN, looked up)
heavy: QVQLQESGPGLVKPSETLSLTCTVSGFSLIGYDLNWIRQPPGKGLEWIGIIWGDGTTDYNSAVKSRVTISKDTSKNQFSLKLSSVTAADTAVYYCARGGYWYATSYYFDYWGQGTLVTVSSASTKGPSVFPLAPCSRSTSESTAALGCLVKDYFPEPVTVSWNSGALTSGVHTFPAVLQSSGLYSLSSVVTVPSSNFGTQTYTCNVDHKPSNTKVDKTVERKCCVECPPCPAPPVAGPSVFLFPPKPKDTLMISRTPEVTCVVVDVSHEDPEVQFNWYVDGVEVHNAKTKPREEQFNSTFRVVSVLTVVHQDWLNGKEYKCKVSNKGLPSSIEKTISKTKGQPREPQVYTLPPSREEMTKNQVSLTCLVKGFYPSDIAVEWESNGQPENNYKTTPPMLDSDGSFFLYSKLTVDKSRWQQGNVFSCSVMHEALHNHYTQKSLSLSPG
light: DIQMTQSPSSLSASVGDRVTITCRASQSISNNLNWYQQKPGKAPKLLIYYTSRFHSGVPSRFSGSGSGTDFTFTISSLQPEDIATYYCQQEHTLPYTFGQGTKLEIKRTVAAPSVFIFPPSDEQLKSGTASVVCLLNNFYPREAKVQWKVDNALQSGNSQESVTEQDSKDSTYSLSSTLTLSKADYEKHKVYACEVTHQGLSSPVTKSFNRGEC
  Kd: ~0.07 nM
